Some of the results follow.
Experiments:
HSkMC = human skeletal muscle cells; test: cytotoxicity call (relative viability < 0.9); settings: 10 µM
S. aureus RN4220 = test: growth inhibition call (relative growth <= 0.2); settings: 50 µM

Row | Compound | cytotoxicity call (HSkMC) | growth inhibition call (S. aureus RN4220)
1 | CCC1OC(=O)C(C)C(OC2CC(C)(OC)C(O)C(C)O2)C(C)C(OC2OC(C)CC(N(C)C)C2O)C(C)(O)CC(C)CN(C)C(C)C(O)C1(C)O (stereo not given) | inactive | active
2 | C[C@@H]1CCCCO[C@@H](CN(C)Cc2ccc3c(c2)OCO3)[C@H](C)CN([C@@H](C)CO)C(=O)c2cc(NC(=O)Nc3ccc4c(c3)OCO4)ccc2O1 | inactive | inactive
3 | Cc1noc(C)c1NC(=O)Nc1cccc2c1O[C@@H](CN(C)Cc1ccc(C(=O)Nc3ccccc3N)cc1)[C@H](C)CN([C@@H](C)CO)C2=O | inactive | inactive
4 | C[C@@H]1CN([C@@H](C)CO)C(=O)c2cc(C#CC3(O)CCCC3)cnc2O[C@H]1CN(C)S(=O)(=O)c1ccc(F)cc1 | inactive | inactive
5 | COc1ccc(S(=O)(=O)Nc2cccc3c2O[C@@H](CN(C)S(=O)(=O)c2ccc(F)cc2)[C@H](C)CN([C@@H](C)CO)C3=O)cc1 | inactive | inactive
6 | C[C@H](CO)N1C[C@H](C)[C@@H](CN(C)S(C)(=O)=O)Oc2ccc(NC(=O)Cn3cnnn3)cc2C1=O | inactive | inactive
7 | CC[C@H](C(=O)O)N1CCCC1 | inactive | inactive
8 | C[C@H](O)C#Cc1ccc2c(c1)O[C@H](CN(C)C(=O)c1ccncc1)[C@@H](C)CN([C@@H](C)CO)S2(=O)=O | inactive | inactive
9 | O=C(/C=c1/nc2c([nH]c1=O)=NON2)c1ccccc1 | inactive | active
10 | C[C@H]1CCCCO[C@H](CN(C)S(=O)(=O)c2ccccc2)[C@@H](C)CN([C@@H](C)CO)C(=O)c2cc(NC(=O)C3CCCCC3)ccc2O1 | inactive | inactive

From the antibiotic and cytotoxicity screens of Wong et al. (2023)
